PubChem BioAssay AID1347073 (National Center for Advancing Translational Sciences (NCATS), 2019)
Out of some 45,000 compounds screened, about 200 (0.44%) were called active. About 7% were inconclusive and are not listed. Calls come from the whole dose curve; as a rule, active = well fitted activation curve with a large enough effect; inconclusive = small, poorly fitted or top-dose-only effect; inactive = no such curve, though single readings can be large or run the other way. This is one part of the list.

Assay: qHTS of TDP-43 Inhibitors: NCGC Sytravon Library Screen; note: 0% is about no effect; nearly all actives have a fitted effect of over 55% in size
Settings: yeast TDP-43 toxicity rescue, BacTiter-Glo growth, 24 h; series mostly up to 46.1 µM; growth rescue (activation): at the top concentration
How it was run: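 TDP-43-expressing yeast, pregrown in raffinose, seeded at OD600 0.02 in galactose medium with compound for 24 hr at 30 deg C. Growth read by BacTiter-Glo luminescence, so rescue of toxicity appears as activation.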

SMILES	growth rescue (activation)
O=c1[nH]nc(-c2ccc(NCCCO)c([N+](=O)[O-])c2)c2ccccc12	inactive: 1.3%
CC(NC(=O)COC(=O)C1=NN(c2ccccc2)C(=O)CC1)c1ccccc1 (stereo not given)	inactive: 10.7%
CCC1(CC)NC(=O)N(CC(=O)NC(=O)NCc2ccccc2)C1=O	inactive: -7.73%
CC1CCCCN1C(=O)c1cccc(NC(=O)c2ccccc2)c1 (stereo not given)	inactive: 9.5%
CCCn1c(O)c(CN2CCCC(C)C2)c(C)c(C#N)c1=O (stereo not given)	inactive: 6.07%
CC(=O)Nc1ccc(S(=O)(=O)N(C)c2ccc(OCCOc3cccc(C)c3)cc2)cc1	inactive: 6.54%
O=C(O)COc1ccccc1/C=N/NC(=O)CSc1nc2ccccc2c(=O)n1-c1ccccc1	inactive: 1.7%
CCOC1=C/C(=C/c2c(N)n3nc(-c4ccccc4)sc3nc2=O)C=CC1=O	inactive: -14.6%
O=C(Nc1ccc(F)cc1)c1ccc(=O)[nH]n1	inactive: 2.99%
CCOC(=O)CNC(=O)CSc1nc2c(C)cccc2cc1CC	inactive: -11.2%
Cc1cccc(C(=O)N[C@H](C(=O)NCCc2ccc(S(N)(=O)=O)cc2)C(C)C)c1	inactive: 19.2%
Cn1c(CNC(=O)c2ccc3c(c2)OCO3)nnc1SCC(=O)Nc1ccc(F)cc1F	inactive: -7.51%
CC(/C=N/NC(=O)CSc1nc2ccccc2n1C)=C\c1ccco1	inactive: 16.6%
Cc1nc2ccc(S(=O)(=O)NCC(=O)N3CCC(C)CC3)cc2s1	inactive: -16.8%
CC(=O)c1c(C(C)=O)c(C)n(-c2ccc(C(=O)O)cc2)c1C	inactive: -39.6%
O=C(COC(=O)c1cccc(S(=O)(=O)N2CCCCC2)c1)NC1CCCc2ccccc21 (stereo not given)	inactive: 10.8%
C=CCNC(=O)COC(=O)CCC(=O)c1cccs1	inactive: 1.85%
COc1ccc(NC(=O)C(=O)N/N=C/c2cccnc2)cc1	inactive: -4.96%
CNC(=O)NC(=O)CSc1ccc(S(=O)(=O)N(C)C2CCCCC2)cn1	inactive: 11.2%
CCOC(=O)NC(=S)Nc1cccc(NC(=S)NC(=O)OCC)c1	inactive: 4.92%
COc1ccc(OC)c(NC(=O)c2cccc(S(=O)(=O)N(Cc3ccccc3)c3ccccc3OC)c2)c1	inactive: -21.8%
CS(=O)(=O)N1CCC(C(=O)Nc2cccc(Cl)c2Cl)CC1	inactive: 3.1%
O=C(CSc1cn[nH]n1)Nc1cccc(C(=O)O)c1	inactive: 12.4%
C1=CC2CC1CC2CN1CCN(Cc2ccccc2)CC1 (stereo not given)	inactive: -41.5%
O=C(CSc1ncnc2sc3c(c12)CCC3)Nc1ccccc1C(=O)O	inactive: 1.51%
O=c1[nH]ncc(N/N=C\c2cccs2)c1Cl	inactive: 6.77%
CSCCC(NC(=O)c1ccccc1)C(=O)NCCc1ccc2c(c1)OCCO2 (stereo not given)	inactive: -16.5%

SMILES	growth rescue (activation)
CC1CCN(C(=O)CCc2nnc(-c3ccccc3)o2)CC1	inactive: -6.47%
COc1ccc(C/C(C)=N/NC(=O)c2cc(C)oc2C)cc1	inactive: -23.9%
c1ccc(-c2nnc(SCC3CCCO3)nc2-c2ccccc2)cc1 (stereo not given)	inactive: 1.51%
c1ccc2c(c1)oc1c(-c3ccc4nccn4c3)cccc12	inactive: 17%
CCOC(=O)c1c(NC(=O)CN2C(=O)NC(C)(c3ccc(Cl)cc3)C2=O)sc(C(=O)NC)c1C (stereo not given)	inactive: 9.96%
COC(=O)CN(c1ccc(C)cc1)S(=O)(=O)c1ccc(F)cc1	inactive: 26.5%
COc1ccc(OC2(C)CCN(Cc3ccccc3OC(F)F)C2)cc1 (stereo not given)	inactive: 5.95%
COc1ccccc1NC(=O)CSc1n[nH]c(-c2ccco2)n1	inactive: 3.3%
O=c1oc2ccccc2c(Nc2cc3ccccc3cc2O)c1[N+](=O)[O-]	inactive: -1.04%
COc1ccc(C2CC(c3ccccc3)=NN2C(=O)COC(=O)c2cc(S(=O)(=O)N3CCOCC3)ccc2F)cc1 (stereo not given)	inactive: -12.4%
COc1ccc(S(=O)(=O)N(C)c2ccc(C(=O)NC3CCCC3)cc2)cc1	inactive: 16.2%
CSc1ccc(/C=C(/NC(=O)c2ccccc2)C(=O)NCCCn2ccnc2)cc1	inactive: 6.32%
Cc1c(Cl)cccc1-n1nnc(-c2nc(-c3ccc4c(c3)OCO4)no2)c1C	inactive: 8.91%
COc1ccc(NC(=O)c2cc(-c3ccc(OC)c(OC)c3)nc3ccccc23)c(OC)c1	inactive: 15.3%
COc1ccc(OC)c(NC(=O)COC(=O)c2nc(Cl)ccc2Cl)c1	inactive: 32.6%
C=CCN(C)NC(=S)Nc1ccccc1	inactive: 27%
CCCSc1ncc(Cl)c(C(=O)Nc2sc3c(c2C(N)=O)CCCC3)n1	inactive: 8.56%
Cc1ccc(N(CC(=O)NC(C)C)C(=O)CCC(=O)Nc2nccs2)cc1C	inactive: -4%
CCc1nc2c(OCc3ccc(C(F)(F)F)cc3)cccn2c1N(C)C(=O)c1ccc(C)cc1	inactive: 25%
CCc1ccccc1N(CC(=O)NCc1ccccc1)C(=O)CCC(=O)Nc1ccccn1	inactive: -6.4%
Cc1ccc2c(c1)C(=NC1CCCCC1)c1cc3ccccc3nc1-2	inactive: -6.37%
CCCCNC(=O)C1(C)CCCCN1C(=O)c1cccs1 (stereo not given)	inactive: 5.92%
COc1ccccc1NC(=S)N(c1ccccc1)C(C)C	inactive: 12.3%
Cc1nn(C)cc1C(C)Nc1nc2nonc2nc1N1CCCCC1 (stereo not given)	inactive: 10.4%
CSc1ccccc1NC(=O)CSc1nncs1	inactive: 4.15%
CCOc1ccc(/C=N/NC(=O)c2ccccc2NC(=O)c2ccc(OC)cc2)cc1	inactive: -17.5%
CCOC(=O)C1=NNC(C(=O)c2ccccc2)C1c1ccc(Cl)cc1 (stereo not given)	inactive: 19.8%

SMILES	growth rescue (activation)
Cc1csc(SCC(=O)Nc2nncs2)n1	inactive: 0.469%
Cc1cc2n(n1)CCCN2C(=O)Nc1ccc(C)c(Cl)c1	inactive: 16.7%
CN(c1ccccc1)S(=O)(=O)c1nnc(NC(=O)c2cccs2)s1	inactive: -8.62%
CC(C)N(C(=O)CSc1ncnc2sc(-c3ccccc3)cc12)C(C)C	inactive: 10.8%
Cn1c(=O)c2c(ncn2CC(=O)OCC(=O)Nc2ccc(Cl)cc2Cl)n(C)c1=O	inactive: 9.43%
O=C(Cc1cccs1)Nc1nnc(C2CC2)s1	inactive: -2.4%
O=C(c1cc(-c2cccc(Cl)c2)on1)N1CCCCCC1	inactive: 33.8%
COc1ccc(CC(=O)Nc2nc(OCCN3CCCC3=O)cnc2-c2cccc(C(F)(F)F)c2)cc1	inactive: 3.54%
CC(/C=N/NC(=O)c1ccc(CN2c3cccc4cccc(c34)S2(=O)=O)cc1)c1ccccc1 (stereo not given)	inactive: 3.2%
COc1ccc(Cl)cc1-c1noc([C@@H]2O[C@H](CO)[C@H](O)[C@H](O)[C@H]2O)n1	inactive: 2.17%
Cc1cc(C(=O)N/N=C/c2ccncc2)c2ccccc2n1	inactive: 3.08%
O=C(N/N=C/C=C\c1ccc([N+](=O)[O-])cc1)c1cccnc1	inactive: 4.21%
Cc1onc(-c2ccccc2)c1C(=O)N1CCOC12CCN(c1cccc(F)n1)CC2	inactive: 11.4%
Cc1nnc(SCC(=O)Nc2cccc([N+](=O)[O-])c2)n1CC1CCCO1 (stereo not given)	inactive: -0.747%
CCOc1ccc(S(=O)(=O)N2CCC(C(=O)N3CCN(C)CC3)CC2)cc1Cl	inactive: 3.74%
CN1C(=O)[C@@H]2[C@@H]3C[C@@H]([C@H]4ON=C(c5ccccc5OCC#N)[C@@H]34)[C@@H]2C1=O	inactive: 3.41%
c1csc(C2=Nn3c(nnc3-c3ccncc3)SC2)c1	inactive: 12.6%
S=c1nc(-c2cc(Cl)ccc2Cl)[nH][nH]1	inactive: -9.91%
COc1ccc(N2CCN(C(=O)[C@@H](NC(=O)c3ccccc3Cl)C(C)C)CC2)cc1	inactive: 15.6%
Cc1ccc[n+](/C(=C\C(=C=[N-])C#N)C(=O)c2ccc(Cl)cc2)c1	inactive: 9.72%
O=C(Nc1ccc(NC(=O)c2cccnc2)cc1)c1ccccc1	inactive: -2%
CC(C)OP(=O)(c1ccc(N(C)C)cc1)C(Nc1ccccc1)c1cccnc1 (stereo not given)	inactive: 13.7%
COCCc1ccc(OC2(C)CCN(Cc3cccc(OC)c3OC)C2)cc1 (stereo not given)	inactive: 17%
CCN(CC)c1ccc(S(=O)(=O)N(CC)CC)cc1NC(=O)C1CCCC1	inactive: 5.61%
NC1=NC(=O)/C(=C/c2ccc(Cl)cc2Cl)S1	inactive: 2.86%
CCCNC(=O)c1cc(-c2ccc3c(c2)OCO3)on1	inactive: -13.4%
COC(=O)c1[nH]c(C)c(/C(O)=C2\C(=O)C(=O)N(CCN3CCOCC3)C2c2cccs2)c1C (stereo not given)	inactive: 6.46%

SMILES	growth rescue (activation)
Cc1ccc(S(=O)(=O)/N=C(/NNC(=O)c2cccc(Cl)c2)c2ccccc2)cc1	inactive: 13.9%
COc1ccc(CN2CC(=O)N(c3ccccc3OC)C2=S)cc1OC	inactive: -10.8%
Cc1cccc(C)c1OCC(O)CN(Cc1ccccc1O)C1CCCCC1 (stereo not given)	inactive: 14.2%
COc1cc(NC(=O)c2cccc(COCC(F)(F)C(F)F)c2)cc(OC)c1OC	inactive: -20.1%
O=C(/C=C/c1cn(-c2ccccc2)nc1-c1cccnc1)NCCN1CCOCC1	inactive: 0.202%
Nc1nnc(CSCc2ccccc2Cl)s1	inactive: 9.67%
O=C(C1=C(O)C(=O)N(CCOCCO)C1c1ccccn1)c1cccs1 (stereo not given)	inactive: -2.52%
CCNC(=S)NNc1nc(N2CCCCC2)nc(N2CCOCC2)n1	inactive: 14%
O=C(CSc1nnc(-c2ccc(F)cc2)n1-c1ccccc1)NCCN1C(=O)CSC1=O	inactive: 8.71%
Cc1c(NC(=O)COC(=O)c2c3c(nc4ccccc24)CCCC3)c(=O)n(-c2ccccc2)n1C	inactive: 1.94%
CCn1ncc(Br)c1C(=O)Nc1cccc(C(C)=O)c1	inactive: -11.2%
CCOc1ccc(CCNc2nc3ccccc3n3cnnc23)cc1OCC	inactive: 13.9%
CCC(=O)N(CCc1ccccc1C)Cc1cc2cc3c(cc2[nH]c1=O)OCO3	inactive: -6.84%
Cc1ccc2c(c1)/C(=C/c1ccco1)C(=O)N2	inactive: 16.9%
Cc1cc(=O)[nH]c(SCC(=O)Nc2ccc(Br)cc2)n1	inactive: 0.754%
CCOc1cc(/C=N/N=C2/NC(=O)C(CC(=O)O)S2)ccc1OCc1ccccc1Cl (stereo not given)	inactive: 12.6%
COc1cccc(CNC(=O)Cn2cccc2C(=O)c2ccccc2)c1	inactive: 20.2%
Cc1cccc(C)c1NC(=O)NC1(C(=O)NCC2CCCO2)CCCCC1 (stereo not given)	inactive: -13.2%
CCOC(=O)C1Nc2ccc(C(=O)O)cc2C2C=CCC12 (stereo not given)	inactive: -1.29%
COc1ccc(NC(=O)c2cc(C)nc3ccccc23)cc1S(=O)(=O)N1CCOCC1	inactive: -12.1%
CCc1ccc(-c2nc(SCC(=O)c3c(N)n(C)c(=O)n(C)c3=O)n[nH]2)cc1	inactive: -31.7%
CN(c1ccccc1)S(=O)(=O)c1cccc(NC(=O)Cc2c(F)cccc2Cl)c1	inactive: 9.22%
Cc1c(Cc2c(C)n(C)n(-c3ccccc3)c2=O)c(=O)n(-c2ccccc2)n1C	inactive: -0.0079%
CCOC(=O)/C(N=Nc1ccc(F)cc1)=C(/O)c1ccc([N+](=O)[O-])cc1	inactive: 5.49%
